Source: a compilation of properties of binary mixtures (doi:10.1016/j.molliq.2015.07.073)
Some of these densities may be calculated back from excess volumes.

Assay: xn = mol fraction of the nth substance listed
Conditions: 101 kPa

## CO + CCCC[n+]1ccn(C)c1.N#C[S-]
293.15 K, x1 = 1
  mass density: 791.6 kg/m3
298.15 K, x1 = 1
  mass density: 786.9 kg/m3
303.15 K, x1 = 1
  mass density: 782.2 kg/m3
308.15 K, x1 = 1
  mass density: 777.4 kg/m3
323.15 K, x1 = 1
  mass density: 763.1 kg/m3

## CO + C=CC[n+]1ccn(C)c1.N#C[S-]
298.15 K, x1 = 1
  mass density: 786.9 kg/m3
303.15 K, x1 = 1
  mass density: 782.2 kg/m3
308.15 K, x1 = 1
  mass density: 777.4 kg/m3
313.15 K, x1 = 1
  mass density: 772.7 kg/m3
318.15 K, x1 = 1
  mass density: 767.9 kg/m3
323.15 K, x1 = 1
  mass density: 763.1 kg/m3

## CCCC[n+]1ccn(C)c1.N#C[S-] + CO
293.15 K, x1 = 0.0167
  mass density: 814.8 kg/m3
293.15 K, x2 = 0.0951
  mass density: 1067.3 kg/m3
293.15 K, x2 = 0.1943
  mass density: 1060.4 kg/m3
293.15 K, x2 = 0.2882
  mass density: 1053.2 kg/m3
293.15 K, x2 = 0.3763
  mass density: 1044.9 kg/m3
293.15 K, x2 = 0.4922
  mass density: 1031.3 kg/m3
293.15 K, x2 = 0.8543
  mass density: 928.4 kg/m3
293.15 K, x2 = 0.9042
  mass density: 896.6 kg/m3
293.15 K, x2 = 0.9455
  mass density: 858.8 kg/m3
298.15 K, x1 = 0.0167
  mass density: 810.2 kg/m3
298.15 K, x2 = 0.6379
  mass density: 1001.6 kg/m3
298.15 K, x2 = 0.7931
  mass density: 954.8 kg/m3
298.15 K, x2 = 0.9455
  mass density: 854.6 kg/m3
303.15 K, x2 = 0
  mass density: 1066.8 kg/m3
303.15 K, x2 = 0.0951
  mass density: 1061.3 kg/m3
303.15 K, x2 = 0.1943
  mass density: 1054.3 kg/m3
303.15 K, x2 = 0.2882
  mass density: 1047.1 kg/m3
303.15 K, x2 = 0.3763
  mass density: 1038.7 kg/m3
303.15 K, x2 = 0.6379
  mass density: 998.2 kg/m3
303.15 K, x2 = 0.7931
  mass density: 951.2 kg/m3
303.15 K, x2 = 0.8543
  mass density: 920.7 kg/m3
303.15 K, x2 = 0.9455
  mass density: 850.3 kg/m3
308.15 K, x1 = 0.0167
  mass density: 801 kg/m3
308.15 K, x2 = 0.6379
  mass density: 994.9 kg/m3
308.15 K, x2 = 0.8543
  mass density: 916.9 kg/m3
308.15 K, x2 = 0.9455
  mass density: 846 kg/m3
313.15 K, x1 = 0.0167
  mass density: 796.4 kg/m3
313.15 K, x2 = 0.1943
  mass density: 1048.3 kg/m3
313.15 K, x2 = 0.2882
  mass density: 1041 kg/m3
313.15 K, x2 = 0.3763
  mass density: 1032.5 kg/m3
313.15 K, x2 = 0.4922
  mass density: 1018.6 kg/m3
313.15 K, x2 = 0.6379
  mass density: 991.5 kg/m3
313.15 K, x2 = 0.9042
  mass density: 880.6 kg/m3
313.15 K, x2 = 0.9455
  mass density: 841.8 kg/m3
318.15 K, x2 = 0.6379
  mass density: 988.2 kg/m3
318.15 K, x2 = 0.7931
  mass density: 940.3 kg/m3
318.15 K, x2 = 0.8543
  mass density: 909.3 kg/m3
318.15 K, x2 = 0.9455
  mass density: 837.5 kg/m3
323.15 K, x1 = 0.0167
  mass density: 787.2 kg/m3
323.15 K, x2 = 0
  mass density: 1055 kg/m3
323.15 K, x2 = 0.2882
  mass density: 1034.9 kg/m3
323.15 K, x2 = 0.3763
  mass density: 1026.3 kg/m3
323.15 K, x2 = 0.6379
  mass density: 984.9 kg/m3
323.15 K, x2 = 0.8543
  mass density: 905.5 kg/m3
323.15 K, x2 = 0.9042
  mass density: 872.6 kg/m3
323.15 K, x2 = 0.9455
  mass density: 833.2 kg/m3

## CO + CCCCn1cc[n+](CCC#N)c1.N#C[S-]
298.15 K, x1 = 1
  mass density: 786.9 kg/m3
303.15 K, x1 = 1
  mass density: 782.2 kg/m3
308.15 K, x1 = 1
  mass density: 777.4 kg/m3
313.15 K, x1 = 1
  mass density: 772.7 kg/m3
318.15 K, x1 = 1
  mass density: 767.9 kg/m3

## CCCCn1cc[n+](CCC#N)c1.N#C[S-] + CO
293.15 K, x2 = 0
  mass density: 1163.7 kg/m3
293.15 K, x2 = 0.0687
  mass density: 1159.2 kg/m3
293.15 K, x2 = 0.1749
  mass density: 1151.4 kg/m3
293.15 K, x2 = 0.5135
  mass density: 1109 kg/m3
293.15 K, x2 = 0.6655
  mass density: 1071 kg/m3
293.15 K, x2 = 0.7342
  mass density: 1044.4 kg/m3
293.15 K, x2 = 0.8141
  mass density: 1000.6 kg/m3
298.15 K, x2 = 0
  mass density: 1160.5 kg/m3
298.15 K, x2 = 0.0687
  mass density: 1156 kg/m3
298.15 K, x2 = 0.1749
  mass density: 1148.2 kg/m3
298.15 K, x2 = 0.2892
  mass density: 1137.4 kg/m3
298.15 K, x2 = 0.4013
  mass density: 1123.8 kg/m3
298.15 K, x2 = 0.6655
  mass density: 1067.4 kg/m3
298.15 K, x2 = 0.7342
  mass density: 1040.6 kg/m3
298.15 K, x2 = 0.8141
  mass density: 996.6 kg/m3
303.15 K, x2 = 0.0687
  mass density: 1152.8 kg/m3
303.15 K, x2 = 0.1749
  mass density: 1144.9 kg/m3
303.15 K, x2 = 0.4013
  mass density: 1120.4 kg/m3
303.15 K, x2 = 0.5135
  mass density: 1102.2 kg/m3
303.15 K, x2 = 0.7342
  mass density: 1036.8 kg/m3
303.15 K, x2 = 0.8141
  mass density: 992.5 kg/m3
308.15 K, x2 = 0
  mass density: 1154.1 kg/m3
308.15 K, x2 = 0.1749
  mass density: 1141.8 kg/m3
308.15 K, x2 = 0.2892
  mass density: 1130.9 kg/m3
308.15 K, x2 = 0.5135
  mass density: 1098.8 kg/m3
308.15 K, x2 = 0.6655
  mass density: 1060.3 kg/m3
308.15 K, x2 = 0.8141
  mass density: 988.5 kg/m3
313.15 K, x2 = 0
  mass density: 1150.9 kg/m3
313.15 K, x2 = 0.1749
  mass density: 1138.6 kg/m3
313.15 K, x2 = 0.2892
  mass density: 1127.7 kg/m3
313.15 K, x2 = 0.5135
  mass density: 1095.5 kg/m3
313.15 K, x2 = 0.6655
  mass density: 1056.7 kg/m3
313.15 K, x2 = 0.7342
  mass density: 1029.5 kg/m3
313.15 K, x2 = 0.8141
  mass density: 984.6 kg/m3
318.15 K, x2 = 0
  mass density: 1147.7 kg/m3
318.15 K, x2 = 0.0687
  mass density: 1143.2 kg/m3
318.15 K, x2 = 0.1749
  mass density: 1135.3 kg/m3
318.15 K, x2 = 0.2892
  mass density: 1124.4 kg/m3
318.15 K, x2 = 0.4013
  mass density: 1110.5 kg/m3
318.15 K, x2 = 0.7342
  mass density: 1025.7 kg/m3
323.15 K, x2 = 0.0687
  mass density: 1140 kg/m3
323.15 K, x2 = 0.1749
  mass density: 1132.1 kg/m3
323.15 K, x2 = 0.2892
  mass density: 1121.1 kg/m3
323.15 K, x2 = 0.4013
  mass density: 1107.2 kg/m3
323.15 K, x2 = 0.5135
  mass density: 1088.7 kg/m3
323.15 K, x2 = 0.6655
  mass density: 1049.6 kg/m3
323.15 K, x2 = 0.7342
  mass density: 1022 kg/m3
323.15 K, x2 = 0.8141
  mass density: 976.5 kg/m3

## C=CC[n+]1ccn(C)c1.N#C[S-] + CO
293.15 K, x2 = 0.0972
  mass density: 1161.5 kg/m3
293.15 K, x2 = 0.2866
  mass density: 1140.6 kg/m3
293.15 K, x2 = 0.4049
  mass density: 1122.4 kg/m3
293.15 K, x2 = 0.5184
  mass density: 1098.2 kg/m3
293.15 K, x2 = 0.6079
  mass density: 1073.4 kg/m3
293.15 K, x2 = 0.8994
  mass density: 918.2 kg/m3
298.15 K, x2 = 0
  mass density: 1167 kg/m3
298.15 K, x2 = 0.0972
  mass density: 1158.2 kg/m3
298.15 K, x2 = 0.2866
  mass density: 1137.2 kg/m3
298.15 K, x2 = 0.5184
  mass density: 1094.6 kg/m3
298.15 K, x2 = 0.6079
  mass density: 1069.7 kg/m3
298.15 K, x2 = 0.7044
  mass density: 1035.7 kg/m3
298.15 K, x2 = 0.8016
  mass density: 986.5 kg/m3
298.15 K, x2 = 0.8994
  mass density: 914.1 kg/m3
303.15 K, x2 = 0
  mass density: 1163.7 kg/m3
303.15 K, x2 = 0.0972
  mass density: 1154.9 kg/m3
303.15 K, x2 = 0.5184
  mass density: 1091.1 kg/m3
303.15 K, x2 = 0.6079
  mass density: 1066.1 kg/m3
303.15 K, x2 = 0.7044
  mass density: 1031.8 kg/m3
303.15 K, x2 = 0.8016
  mass density: 982.6 kg/m3
303.15 K, x2 = 0.8994
  mass density: 910 kg/m3
308.15 K, x2 = 0
  mass density: 1160.6 kg/m3
308.15 K, x2 = 0.0972
  mass density: 1151.7 kg/m3
308.15 K, x2 = 0.2866
  mass density: 1130.6 kg/m3
308.15 K, x2 = 0.4049
  mass density: 1112.1 kg/m3
308.15 K, x2 = 0.5184
  mass density: 1087.6 kg/m3
308.15 K, x2 = 0.6079
  mass density: 1062.5 kg/m3
308.15 K, x2 = 0.7044
  mass density: 1028 kg/m3
308.15 K, x2 = 0.8994
  mass density: 905.8 kg/m3
313.15 K, x2 = 0
  mass density: 1157.3 kg/m3
313.15 K, x2 = 0.0972
  mass density: 1148.5 kg/m3
313.15 K, x2 = 0.2866
  mass density: 1127.2 kg/m3
313.15 K, x2 = 0.6079
  mass density: 1058.7 kg/m3
313.15 K, x2 = 0.7044
  mass density: 1024.4 kg/m3
313.15 K, x2 = 0.8016
  mass density: 974.9 kg/m3
313.15 K, x2 = 0.8994
  mass density: 901.7 kg/m3
318.15 K, x2 = 0
  mass density: 1154.1 kg/m3
318.15 K, x2 = 0.0972
  mass density: 1145.3 kg/m3
318.15 K, x2 = 0.2866
  mass density: 1123.9 kg/m3
318.15 K, x2 = 0.4049
  mass density: 1105.2 kg/m3
318.15 K, x2 = 0.5184
  mass density: 1080.6 kg/m3
318.15 K, x2 = 0.6079
  mass density: 1055.2 kg/m3
318.15 K, x2 = 0.7044
  mass density: 1020.4 kg/m3
318.15 K, x2 = 0.8016
  mass density: 971 kg/m3
318.15 K, x2 = 0.8994
  mass density: 897.6 kg/m3
323.15 K, x2 = 0
  mass density: 1151 kg/m3
323.15 K, x2 = 0.0972
  mass density: 1142.2 kg/m3
323.15 K, x2 = 0.2866
  mass density: 1120.6 kg/m3
323.15 K, x2 = 0.4049
  mass density: 1101.9 kg/m3
323.15 K, x2 = 0.5184
  mass density: 1077.1 kg/m3
323.15 K, x2 = 0.6079
  mass density: 1051.6 kg/m3
323.15 K, x2 = 0.7044
  mass density: 1016.4 kg/m3
323.15 K, x2 = 0.8016
  mass density: 967.1 kg/m3
323.15 K, x2 = 0.8994
  mass density: 893.5 kg/m3
